{
  "source": "paper PMC4336329",
  "about": "(PLoS ONE, 2015)",
  "note": "Screen size: about 310,000 compounds; about 2,200 (0.71%) showed an effect of 50% or more. The effect is printed as a negative number. The list shows a part of the results.",
  "data": [
    {"target": "human ether-à-go-go-related gene (hERG) potassium channel (human, UniProt Q12809)", "sequence (Q12809 whole entry, looked up)": "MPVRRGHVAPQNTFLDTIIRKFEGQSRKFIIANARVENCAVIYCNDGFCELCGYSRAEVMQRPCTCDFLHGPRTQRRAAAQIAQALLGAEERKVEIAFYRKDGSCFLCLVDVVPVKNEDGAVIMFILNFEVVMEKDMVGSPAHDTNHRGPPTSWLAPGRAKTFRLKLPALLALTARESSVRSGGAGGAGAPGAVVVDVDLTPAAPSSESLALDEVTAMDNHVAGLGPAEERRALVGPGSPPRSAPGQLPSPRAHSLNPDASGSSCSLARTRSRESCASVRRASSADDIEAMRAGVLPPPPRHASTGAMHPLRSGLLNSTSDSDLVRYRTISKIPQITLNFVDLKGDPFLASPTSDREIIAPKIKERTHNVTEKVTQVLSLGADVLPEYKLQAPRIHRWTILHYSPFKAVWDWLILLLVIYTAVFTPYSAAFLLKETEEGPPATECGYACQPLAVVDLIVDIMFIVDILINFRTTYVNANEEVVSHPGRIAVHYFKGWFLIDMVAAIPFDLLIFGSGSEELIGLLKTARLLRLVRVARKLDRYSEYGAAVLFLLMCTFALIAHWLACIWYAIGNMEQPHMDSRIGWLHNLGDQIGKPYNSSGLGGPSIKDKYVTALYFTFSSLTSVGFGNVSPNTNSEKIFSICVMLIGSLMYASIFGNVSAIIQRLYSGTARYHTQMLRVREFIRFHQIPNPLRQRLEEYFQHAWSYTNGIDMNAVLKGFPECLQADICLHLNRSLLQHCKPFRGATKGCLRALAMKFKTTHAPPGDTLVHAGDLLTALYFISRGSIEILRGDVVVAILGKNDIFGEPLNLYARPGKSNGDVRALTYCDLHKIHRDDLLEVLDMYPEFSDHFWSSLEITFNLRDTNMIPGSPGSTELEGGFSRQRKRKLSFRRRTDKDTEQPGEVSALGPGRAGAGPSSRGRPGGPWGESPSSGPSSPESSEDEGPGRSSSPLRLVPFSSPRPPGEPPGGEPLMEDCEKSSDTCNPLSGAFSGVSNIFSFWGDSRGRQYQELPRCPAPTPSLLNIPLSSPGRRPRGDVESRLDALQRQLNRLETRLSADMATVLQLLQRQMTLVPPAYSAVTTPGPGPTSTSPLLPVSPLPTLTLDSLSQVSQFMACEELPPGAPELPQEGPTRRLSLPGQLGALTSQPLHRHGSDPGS", "assay": "primary screen, population patch clamp on CHO cells stably expressing hERG", "units": {"hERG current change (%, negative = inhibition) at 1uM": "%"}, "values": [
      {"molecule": "O=C(NCCCn1ccnc1)c1cn(Cc2ccc(F)cc2)nn1", "hERG current change (%, negative = inhibition) at 1uM": -0.951},
      {"molecule": "CC(C)Oc1cccc(C(=O)C2CCCN(C3CCOCC3)C2)c1", "note": "(stereo not drawn)", "hERG current change (%, negative = inhibition) at 1uM": -5.96},
      {"molecule": "CCC(CC)C(=O)c1c[nH]c(C(=O)N2CCN(c3ccccc3F)CC2)c1", "hERG current change (%, negative = inhibition) at 1uM": 9.18},
      {"molecule": "N/C(=N\\OC(=O)CCC1CCCC1)c1cccc([N+](=O)[O-])c1", "hERG current change (%, negative = inhibition) at 1uM": -53.8},
      {"molecule": "COc1ccc2[nH]c3c(c2c1)CCN1C(=O)N([C@@H](C)C(=O)NCc2ccc(F)cc2)C(=O)[C@]31C", "hERG current change (%, negative = inhibition) at 1uM": 14},
      {"molecule": "CCc1ccccc1N1CC23C=CC(O2)C(C(=O)OCC(C)C)C3C1=O", "note": "(stereo not drawn)", "hERG current change (%, negative = inhibition) at 1uM": 4.32},
      {"molecule": "Cc1ccc(Oc2ccc(OCC(=O)NC(CC(C)C)C(=O)O)cc2)cc1", "note": "(stereo not drawn)", "hERG current change (%, negative = inhibition) at 1uM": 6.76},
      {"molecule": "COc1ccc(C(=O)NC2CCCCC2)cc1OC1CCN(C(C)C)CC1", "hERG current change (%, negative = inhibition) at 1uM": -30.9},
      {"molecule": "Cc1cccc(N2CCN(C(=O)c3cn(C)c(=O)c4c3c3ccccc3n4C)CC2)c1C", "hERG current change (%, negative = inhibition) at 1uM": 14.7},
      {"molecule": "Cc1ccc2occ(C3NC(C(=O)O)CS3)c(=O)c2c1", "note": "(stereo not drawn)", "hERG current change (%, negative = inhibition) at 1uM": 13},
      {"molecule": "O=C(Nc1ncc([N+](=O)[O-])s1)C1CCN(S(=O)(=O)c2cnc[nH]2)CC1", "hERG current change (%, negative = inhibition) at 1uM": 12.4},
      {"molecule": "O=C(Nc1cccc2ncccc12)c1cccc(Br)c1", "hERG current change (%, negative = inhibition) at 1uM": 10.5},
      {"molecule": "N#Cc1c(/N=C/c2cccnc2)sc2c1CCCC2", "hERG current change (%, negative = inhibition) at 1uM": 4.42},
      {"molecule": "COc1ccc(C)cc1NC(=O)C1CC(=O)N(CCc2ccccc2)C1", "note": "(stereo not drawn)", "hERG current change (%, negative = inhibition) at 1uM": 7.99},
      {"molecule": "COCc1cc(C)n(CC(=O)Nc2ccc(N3CCOCC3)c(Cl)c2)c(=O)c1C#N", "hERG current change (%, negative = inhibition) at 1uM": 11.5},
      {"molecule": "CCOC(=O)c1ccc(CNC(=O)c2cc(C(C)(C)C)oc2C)o1", "hERG current change (%, negative = inhibition) at 1uM": 10.7},
      {"molecule": "O=C(NC1CC1)C1=C[C@@H](c2ccc3c(c2)OCO3)C[C@@H](OCc2ccc(CO)cc2)O1", "hERG current change (%, negative = inhibition) at 1uM": 15.1},
      {"molecule": "Cc1ccc(C(=O)Nc2cccc(C(F)(F)F)c2)cc1Nc1cnccn1", "hERG current change (%, negative = inhibition) at 1uM": -0.92},
      {"molecule": "COc1cc(-c2nc3ccccn3c2/N=C/c2ccc(F)cc2)ccc1O", "hERG current change (%, negative = inhibition) at 1uM": 25},
      {"molecule": "CC(C)(Cc1ccccc1)NC(=O)C(=O)c1cn(CC(=O)N2CCOCC2)c2ccccc12", "hERG current change (%, negative = inhibition) at 1uM": 9.27},
      {"molecule": "CSc1ccc(/C=C2\\CCn3c2nc2cc(C(=O)O)ccc2c3=O)cc1", "hERG current change (%, negative = inhibition) at 1uM": 15.6},
      {"molecule": "[O-]/[N+](=C\\c1ccccc1)c1ccc(Br)cc1", "hERG current change (%, negative = inhibition) at 1uM": 4.81},
      {"molecule": "CCOc1ccc(CN(C)C(=O)Cc2c[nH]c3ccccc23)cc1", "hERG current change (%, negative = inhibition) at 1uM": 10.1},
      {"molecule": "CC1=C(C(N)=O)C(c2ccc(Cl)c(Cl)c2)n2ncnc2N1", "note": "(stereo not drawn)", "hERG current change (%, negative = inhibition) at 1uM": 17},
      {"molecule": "O=C(Cn1c(=O)c2c(ncn2Cc2ccccc2)n(Cc2ccccc2)c1=O)N1CCCC1", "hERG current change (%, negative = inhibition) at 1uM": 5.54},
      {"molecule": "Nc1nc(Nc2ccc(Cl)cc2)nc(NCc2ccco2)c1[N+](=O)[O-]", "hERG current change (%, negative = inhibition) at 1uM": -0.203},
      {"molecule": "CCn1c(SC(C)C(=O)NC2CCCC2)nc2cc(S(N)(=O)=O)ccc21", "note": "(stereo not drawn)", "hERG current change (%, negative = inhibition) at 1uM": 12.5},
      {"molecule": "Cc1ncc([N+](=O)[O-])n1Cc1cccc(F)c1", "hERG current change (%, negative = inhibition) at 1uM": 10.7},
      {"molecule": "CC1CCCCN1S(=O)(=O)c1ccc(C(=O)N(CCCN(C)C)c2nc3ccc(Br)cc3s2)cc1.Cl", "note": "(stereo not drawn)", "hERG current change (%, negative = inhibition) at 1uM": 6.2},
      {"molecule": "Cc1c(-n2cc(C(=O)c3cc(Br)ccc3O)cc(C#N)c2=O)c(=O)n(-c2ccccc2)n1C", "hERG current change (%, negative = inhibition) at 1uM": -17.5},
      {"molecule": "CCOc1ccc(NC(=O)c2ccc3nccnc3c2)cc1", "hERG current change (%, negative = inhibition) at 1uM": 17.3},
      {"molecule": "CCN(C(=O)COC(=O)CCc1ccccc1OC)c1c(N)n(Cc2ccccc2)c(=O)[nH]c1=O", "hERG current change (%, negative = inhibition) at 1uM": 1.12},
      {"molecule": "CCOC(=O)c1c(C)nc(-c2ccccc2)nc1NC(=O)CC", "hERG current change (%, negative = inhibition) at 1uM": 4.55},
      {"molecule": "COC(=O)c1cc(S(=O)(=O)NCC2CCN(Cc3ccc(F)cc3)CC2)c[nH]1", "hERG current change (%, negative = inhibition) at 1uM": 7.24},
      {"molecule": "COc1ccc(-c2csc3nc[nH]c(=O)c23)cc1", "hERG current change (%, negative = inhibition) at 1uM": -8.89},
      {"molecule": "COc1ccc(OC)c(S(=O)(=O)NCCc2ccccc2)c1", "hERG current change (%, negative = inhibition) at 1uM": 11.8},
      {"molecule": "CCOc1ccc(-c2nnn(CC(=O)NCc3ccco3)n2)cc1", "hERG current change (%, negative = inhibition) at 1uM": -2.63},
      {"molecule": "CCN(CC(=O)Nc1c(F)cccc1F)C(=O)c1cc(C)nc2ccccc12", "hERG current change (%, negative = inhibition) at 1uM": 8.86},
      {"molecule": "C=CCN(c1ccc(Cl)cc1)S(=O)(=O)c1cccc(C(=O)O)c1", "hERG current change (%, negative = inhibition) at 1uM": 15.3},
      {"molecule": "O=C(Nc1ccc(N2CCCC2)cc1)c1ccc([N+](=O)[O-])cc1Cl", "hERG current change (%, negative = inhibition) at 1uM": 9.52},
      {"molecule": "C=CCN1C(=O)S/C(=C/c2ccsc2)C1=O", "hERG current change (%, negative = inhibition) at 1uM": 10.6},
      {"molecule": "CCCC1CC(c2csc(N)n2)CCO1", "note": "(stereo not drawn)", "hERG current change (%, negative = inhibition) at 1uM": 12.1}
    ]}
  ]
}
